Results on 39 compounds are retold here after the supplement of paper PMC9446081.

Each structure is given as a SMILES string. The whole screen tested about 39,000 compounds, of which about 220 (0.56%) showed activity. Some of the results follow.
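Note: static incubation at 37 °C against the wild-type strain, values averaged over two biological replicates.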

This assay deals with Escherichia coli K-12 BW25113. As to the kind of experiment: relative growth (OD600 normalised to plate interquartile mean) (fraction); higher = less growth inhibition, active = 0.2 or less. To be noted: 50 µM; LB; incubation time: overnight (16-24 h).
As to `C[C@@H]1CN([C@H](C)CO)C(=O)c2cccc(NC(=O)C3CCOCC3)c2O[C@@H]1CN(C)Cc1ccc(Oc2ccccc2)cc1`, the relative growth was inactive: 0.988. With `COc1ccccc1CNC(=O)C[C@H]1C[C@@H]2c3cc(NS(=O)(=O)c4ccc(F)cc4)ccc3O[C@@H]2[C@H](CO)O1`, the relative growth was inactive: 0.996. With `COC(=O)[C@H]1CCc2nc[nH]c2C1`, the relative growth is inactive: 1. In the case of `CO[C@H]1CN(C)C(=O)c2cc(NS(C)(=O)=O)ccc2OC[C@@H](C)N(C(=O)C2CCCCC2)C[C@@H]1C`, the relative growth is inactive: 0.99. Consider `COc1ccc(CNC(=O)C[C@@H]2C[C@@H]3c4cc(NS(=O)(=O)c5ccc(F)cc5)ccc4O[C@@H]3[C@@H](CO)O2)cc1`, for which the relative growth was inactive: 1.01. `COc1ccccc1-c1ccc2c(c1)O[C@H](CN(C)CC1CCOCC1)[C@H](C)CN([C@H](C)CO)S2(=O)=O`: the relative growth is inactive: 0.93.

For `COc1ccc(S(=O)(=O)N(C)C[C@H]2Oc3ccc(NC(=O)Cn4cnnn4)cc3C(=O)N([C@H](C)CO)C[C@@H]2C)cc1`, the relative growth was inactive: 1.01. Turning to `C[C@H](CO)N1C[C@H](C)[C@H](CN(C)S(C)(=O)=O)Oc2ccc(NC(=O)Nc3ccc(C(F)(F)F)cc3)cc2CC1=O`, the relative growth is inactive: 0.974. In the case of `CN[C@@H]1[C@H](O[C@H]2[C@H](O[C@@H]3[C@@H](O)[C@H](O)[C@@H](NC(=N)N)[C@H](O)[C@H]3NC(=N)N)O[C@@H](C)[C@]2(O)C=O)O[C@@H](CO)[C@H](O)[C@H]1O`, the relative growth is inactive: 0.972. Take `Cc1noc(C)c1S(=O)(=O)Nc1ccc2c(c1)C(=O)N([C@H](C)CO)C[C@H](C)[C@H](CN(C)S(C)(=O)=O)OCCCC[C@@H](C)O2`: the relative growth was inactive: 1.01. With `C[C@H]1CN([C@@H](C)CO)C(=O)CCCn2cc(nn2)CO[C@@H]1CN(C)S(=O)(=O)c1ccc(-n2cccn2)cc1`, the relative growth was inactive: 1. To `COc1ccc(NC(=O)Nc2ccc3c(c2)C(=O)N([C@@H](C)CO)C[C@@H](C)[C@@H](CN(C)C(=O)Nc2cccc4ccccc24)OCCCC[C@H](C)O3)cc1` belongs inactive: 1.01. Take `C[C@H](CO)NS(=O)(=O)c1ccnn1C`: the relative growth was inactive: 0.987. As for `C[C@@H]1CCCCO[C@@H](CN(C)C(=O)C2CCCCC2)[C@@H](C)CN([C@H](C)CO)C(=O)c2cc(NC(=O)Nc3ccccc3)ccc2O1`, the relative growth was inactive: 0.95. For the compound `O=C(C[C@H]1CC[C@@H]2NC[C@H](O)COC[C@H]2O1)NCCN1CCCC1`, the relative growth is inactive: 0.997. Regarding `COc1ccc(S(=O)(=O)Nc2ccc3c(c2)C(=O)N([C@@H](C)CO)C[C@H](C)[C@@H](CN(C)Cc2ccc4c(c2)OCO4)OCCCC[C@H](C)O3)cc1`, the relative growth was inactive: 1.01. As to `COC(=O)C[C@@H]1CC[C@H]2[C@@H](COC[C@H](O)CN2S(=O)(=O)c2ccccc2C)O1`, the relative growth was inactive: 0.876. For `C[C@@H]1CCCCO[C@@H](CN(C)CC2CCCCC2)[C@@H](C)CN([C@H](C)CO)C(=O)c2cc(NC(=O)Nc3ccc(C(F)(F)F)cc3)ccc2O1`, the relative growth was inactive: 0.969. To `Cn1nccc1NC(=O)COCC(=O)O` belongs inactive: 1.04; to `C[C@@H]1CN([C@H](C)CO)C(=O)c2cccc(NC(=O)Nc3ccc(F)cc3)c2O[C@@H]1CN(C)Cc1ccc(C(=O)Nc2ccccc2N)cc1`, inactive: 0.995; to `COc1ccc(C2=N[C@@H](c3ccc(Cl)cc3)[C@@H](c3ccc(Cl)cc3)N2C(=O)N2CCNC(=O)C2)c(OC(C)C)c1`, inactive: 1.01. With `Cc1ccc(S(=O)(=O)Nc2ccc3c(c2)C(=O)N([C@@H](C)CO)C[C@H](C)[C@@H](CN(C)S(=O)(=O)c2ccc(Cl)cc2)OCCCC[C@@H](C)O3)cc1`, the relative growth was inactive: 1.04. To `OCC1=C[C@@H](O)[C@@H]2C=CO[C@@H](O[C@@H]3O[C@H](CO)[C@@H](O)[C@H](O)[C@H]3O)[C@H]12` belongs inactive: 0.993; to `NC(=O)NS(=O)(=O)c1ccc(N)cc1`, inactive: 1.06; to `C[C@H]1CN([C@@H](C)CO)S(=O)(=O)c2ccc(-c3cccnc3)cc2O[C@H]1CN(C)CC1CCOCC1`, inactive: 1. Then `COc1ccc(C#Cc2cnc3c(c2)C(=O)N([C@H](C)CO)C[C@H](C)[C@H](CN(C)S(C)(=O)=O)O3)cc1OC`, with inactive: 0.907. Take `CS(=O)(=O)CC(=O)N1C[C@H]2COC[C@@]2(COc2cccnc2)C1`: the relative growth was inactive: 0.997. Regarding `Cc1ccc(S(=O)(=O)Nc2ccc3c(c2)C(=O)N([C@H](C)CO)C[C@@H](C)[C@@H](CN(C)S(=O)(=O)c2c(C)noc2C)O3)cc1`, the relative growth was inactive: 0.997. Regarding `COc1ccc(CN(C)C[C@H]2OCCCC[C@@H](C)Oc3ccc(NS(=O)(=O)c4ccc(Cl)cc4)cc3C(=O)N([C@@H](C)CO)C[C@H]2C)cc1`, the relative growth was inactive: 0.836.

In the case of `COc1ccc(NC(=O)N(C)C[C@@H]2Oc3ncc(C#C[C@H](C)O)cc3C(=O)N([C@@H](C)CO)C[C@H]2C)cc1`, the relative growth was inactive: 0.992. Regarding `O=C(C[C@H]1C=C[C@@H](NC(=O)C2CC2)[C@@H](CO)O1)NCCCN1CCOCC1`, the relative growth is inactive: 0.991.

`C[N+](C)(C)CCCCNC(=O)[C@H]1C[C@H]2C(=O)N3CCC[C@H]3C(=O)N2[C@H]1c1cccc(OCCO)c1`: the relative growth is inactive: 0.969. Regarding `CNC(=O)[C@H]1C[C@@H]2CN(c3ncc(F)cn3)C[C@H]1O2`, the relative growth was inactive: 0.976. Regarding `COc1ccc(NC(=O)Nc2ccc3c(c2)C(=O)N([C@@H](C)CO)C[C@H](C)[C@@H](CN(C)S(=O)(=O)c2cccs2)OCCCC[C@@H](C)O3)cc1`, the relative growth is inactive: 1.04. Turning to `C[C@@H]1CN([C@@H](C)CO)C(=O)c2cc(C#Cc3ccccn3)cnc2O[C@H]1CN(C)C(=O)CCN1CCCCC1`, the relative growth is inactive: 0.994. To `C[C@@H]1CCCCO[C@H](CN(C)CC2CC2)[C@H](C)CN([C@H](C)CO)C(=O)c2cc(NC(=O)NC3CCCCC3)ccc2O1` belongs inactive: 0.975. To `OCc1ccccc1OC1OC(CO)C(O)C(O)C1O` (centres undefined) belongs inactive: 1.02; to `CCCNC(=O)[C@@]1(c2ccc([N+](=O)[O-])cc2)CC(=O)N(CC23CC4CC(CC(C4)C2)C3)[C@@H]1c1ccc(CO)cc1I`, inactive: 1.04.

Turning to `C=C1CCC(O)CC1=CC=C1CCCC2(C)C1CCC2C(C)C=CC(C)C(C)C` (centres undefined), the relative growth is inactive: 1.14.
